pIC50: −log10 of the molar value. A lower IC50 marks a more sensitive line; where the fit passes the top or lowest dose, that dose stands as a limit. For AUC the same curve is integrated over the 256-fold range of doses and scaled to a fraction; it is 1 without any effect and falls as sensitivity rises. For some of these results: Any top dose called inferred comes from the curve model; the source does not state it. For some of these results: Drugs with an entry number were screened twice under separate entries, and the two screens often disagree.
Key:
Experiment in all cases: Viability of human cancer cell lines after 72 h of drug (GDSC screen)
AZD-0530 = compound: CN1CCN(CCOc2cc(OC3CCOCC3)c3c(Nc4c(Cl)ccc5c4OCO5)ncnc3c2)CC1 [AZD-0530]; conditions: top dose 2 µM
Description: (§1)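 Human cancer cell lines in 384-well plates, medium with 10% serum, drug for 72 h over a 256-fold dose range (nine 2-fold or five 4-fold steps up to the top dose). Adherent lines were fixed and stained with the nucleic acid dye Syto60, suspension lines read with resazurin; signal relative to control wells, capped at 0 and 100%. One two-parameter sigmoid per drug and line, fitted in a mixed model over all curves with the slope shared within a line.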

Epothilone B = compound: C/C(=C\c1csc(C)n1)[C@@H]1C[C@@H]2O[C@]2(C)CCC[C@H](C)[C@H](O)[C@@H](C)C(=O)C(C)(C)[C@@H](O)CC(=O)O1 [Epothilone B]; conditions: top dose 0.032 µM; top dose inferred
Description: as §1

Pyrimethamine = compound: CCc1nc(N)nc(N)c1-c1ccc(Cl)cc1 [Pyrimethamine]; conditions: top dose 20 µM; top dose inferred
Description: as §1

Y-39983 = compound: C[C@@H](N)c1ccc(C(=O)Nc2ccnc3[nH]ccc23)cc1 [Y-39983]; conditions: top dose 20 µM; top dose inferred
Description: as §1

PHA-793887 = compound: CC(C)CC(=O)Nc1n[nH]c2c1CN(C(=O)C1CCN(C)CC1)C2(C)C [PHA-793887]; conditions: top dose 10.24 µM
Description: as §1

PLX4720 = compound: CCCS(=O)(=O)Nc1ccc(F)c(C(=O)c2c[nH]c3ncc(Cl)cc23)c1F [PLX4720]; conditions: top dose 10 µM
Description: as §1

TPCA-1 = compound: NC(=O)Nc1sc(-c2ccc(F)cc2)cc1C(N)=O [TPCA-1]; conditions: top dose 20 µM
Description: as §1

[1] = screen: GDSC drug entry 1371, top dose inferred

Cell Line | AUC (AZD-0530) | pIC50 (AZD-0530) | AUC (Epothilone B) | pIC50 (Epothilone B) | AUC (Pyrimethamine) | pIC50 (Pyrimethamine) | AUC (Y-39983) | pIC50 (Y-39983) | AUC (PHA-793887) | pIC50 (PHA-793887) | AUC (PLX4720; screen: GDSC drug entry 1036) | pIC50 (PLX4720; screen: GDSC drug entry 1036) | AUC (PLX4720; [1]) | pIC50 (PLX4720; [1]) | AUC (TPCA-1) | pIC50 (TPCA-1)
ALL-SIL (T-cell leukaemia, suspension) | 0.57 | 6.73 | 0.396 | 8.97 | 0.916 | < 4.70 | 0.871 | 4.84 | 0.665 | 5.77 | 0.96 | < 5.00 | 0.947 | < 5.00 | 0.605 | 5.63
ARH-77 (myeloma, suspension) | 0.937 | < 5.70 | 0.679 | 8.21 | 0.871 | 4.75 | 0.919 | < 4.70 | 0.532 | 6.11 | 0.97 | < 5.00 | 0.957 | < 5.00 | 0.579 | 5.69
BB30-HNC (head and neck, adherent) | 0.808 | 6.00 | 0.304 | 9.24 | 0.895 | < 4.70 | 0.975 | < 4.70 | 0.866 | 5.05 | 0.939 | < 5.00 | 0.969 | < 5.00 | 0.814 | 4.97
BB49-HNC (head and neck, adherent) | 0.881 | < 5.70 | 0.876 | < 7.49 | 0.94 | < 4.70 | 0.81 | 4.79 | 0.976 | < 4.99 | 0.952 | < 5.00 | 0.919 | < 5.00 | 0.899 | < 4.70
BC-1 (B-cell lymphoma, suspension) | 0.987 | < 5.70 | 0.509 | 8.68 | 0.751 | 5.24 | 0.867 | 4.86 | 0.343 | 6.60 | 0.979 | < 5.00 | 0.801 | 5.39 | 0.624 | 5.59
BC-3 (B-cell lymphoma, suspension) | 0.989 | < 5.70 | 0.753 | 8.01 | 0.855 | 4.87 | 0.916 | < 4.70 | 0.566 | 6.02 | – | – | – | – | 0.472 | 5.97
BE2-M17 (neuroblastoma, adherent) | 0.941 | < 5.70 | 0.903 | < 7.49 | 0.987 | < 4.70 | 0.982 | < 4.70 | 0.93 | < 4.99 | 0.984 | < 5.00 | 0.976 | < 5.00 | 0.937 | < 4.70
BE-13 (lymphoblastic leukaemia, suspension) | 0.87 | 5.78 | 0.684 | 8.20 | 0.751 | 5.21 | 0.428 | 6.09 | 0.666 | 5.75 | 0.822 | 5.27 | 0.946 | < 5.00 | 0.453 | 6.03

Source: the supplement of paper PMC4967469
